Results reported in PubChem BioAssay AID720709 (National Center for Advancing Translational Sciences (NCATS), 2013).
The campaign covered roughly 360,000 compounds. About 520 (0.14%) were called active. The inconclusive results got no clear call from the source; some entries with a clear call stand among them for comparison. Calls follow the shape of the dose curve; as a rule, active = well fitted inhibition curve with a large enough effect; inconclusive = small, poorly fitted or top-dose-only effect; inactive = no such curve, though single readings can be large or run the other way. No potency is given beside an inconclusive call; the fits are too rough.

Each compound was assayed against Rap guanine nucleotide exchange factor 3 (Homo sapiens) (UniProt O95398) (assay: qHTS for Antagonist of cAMP-regulated guanine nucleotide exchange factor 3 (EPAC1): primary screen). Details: EPAC1 GEF assay, Rap1b-BODIPY-GDP exchange fluorescence; series mostly up to 115 µM.
Sequence of UniProt O95398 (O95398 whole entry, looked up): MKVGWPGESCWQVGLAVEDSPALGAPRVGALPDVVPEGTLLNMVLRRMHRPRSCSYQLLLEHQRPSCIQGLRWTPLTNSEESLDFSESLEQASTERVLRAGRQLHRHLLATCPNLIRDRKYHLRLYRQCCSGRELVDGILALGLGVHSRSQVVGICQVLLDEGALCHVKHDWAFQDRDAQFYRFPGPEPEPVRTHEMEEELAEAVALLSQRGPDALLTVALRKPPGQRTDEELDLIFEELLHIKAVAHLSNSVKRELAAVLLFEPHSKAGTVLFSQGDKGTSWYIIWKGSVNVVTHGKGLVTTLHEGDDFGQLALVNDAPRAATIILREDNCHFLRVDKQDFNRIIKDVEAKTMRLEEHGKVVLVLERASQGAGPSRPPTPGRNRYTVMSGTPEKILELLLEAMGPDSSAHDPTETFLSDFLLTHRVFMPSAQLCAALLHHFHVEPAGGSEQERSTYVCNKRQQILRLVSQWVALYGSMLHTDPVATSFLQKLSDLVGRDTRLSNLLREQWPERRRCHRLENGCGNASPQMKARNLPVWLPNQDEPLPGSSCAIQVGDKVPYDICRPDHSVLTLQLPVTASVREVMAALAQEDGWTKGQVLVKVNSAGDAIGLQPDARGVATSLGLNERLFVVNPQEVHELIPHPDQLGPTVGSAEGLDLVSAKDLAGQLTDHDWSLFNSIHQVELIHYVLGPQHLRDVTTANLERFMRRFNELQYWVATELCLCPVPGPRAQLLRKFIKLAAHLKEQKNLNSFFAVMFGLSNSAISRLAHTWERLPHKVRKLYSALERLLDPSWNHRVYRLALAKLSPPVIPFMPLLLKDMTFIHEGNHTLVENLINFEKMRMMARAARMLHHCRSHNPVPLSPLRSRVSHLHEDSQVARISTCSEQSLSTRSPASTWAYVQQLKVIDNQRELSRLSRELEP
Also: nearly all actives have a fitted effect of over 50% in size.
Potency is read from the fitted curve at half-maximal effect; tags tell the direction and shape of the fitted curve.

SMILES | Potency
O=C(O)c1ccccc1-c1ccc(/C=c2\sc3nc4cc(Br)cnc4n3c2=O)o1 | inconclusive [inhibitor, single point]
CCN(C(=O)Cn1ccc(C(F)(F)F)n1)c1c(N)n(Cc2ccccc2)c(=O)[nH]c1=O | inactive
O=C1NC(=Nc2cccc(O)c2)S/C1=C\c1cccc([N+](=O)[O-])c1 | inconclusive [inhibitor, full curve]
COCc1ccc(CN2CCC(C(=O)Nc3cccc(-c4cscn4)c3)CC2)o1 | inconclusive [inhibitor, single point]
COc1ccc2oc3cc(Cl)ccc3c(=O)c2c1 | inactive
Cc1nnc(N/N=C/c2cc([N+](=O)[O-])c(N3CCC(C)CC3)cc2N2CCC(C)CC2)n1N | inconclusive [inhibitor, partial curve]
Cc1ccc(N2C(=O)C(NC(=O)c3ccccc3)(C(F)(F)F)C3=C2CC(C)(C)CC3=O)cc1 (stereo unspecified) | inconclusive [inhibitor, single point]
CCOc1cc(/C=C(\C#N)C(=O)Nc2cccc(C(=O)O)c2)cc(Br)c1OC(=O)c1ccc(OC)cc1 | inconclusive [inhibitor, partial curve]
COc1ccccc1NC(=O)CCC(=O)OCc1ccc(Br)cc1 | inconclusive [inhibitor, single point]
CCn1c(N2CCN(C(=S)NCC(C)C)CC2)nc2ccccc21 | inconclusive [inhibitor, partial curve]
CCNc1cc(O)ccc1C | inactive
CC(=O)Nc1ccc(Sc2ncccc2C(=O)Nc2cc(Cl)cc(Cl)c2)cn1 | inactive
O=C(Nc1ccc(S(=O)(=O)NC2=NCCCCC2)cc1)c1ccc2ccccc2n1 | inconclusive [inhibitor, partial curve, poor fit]
CCOC(=O)c1csc(-c2snnc2C)n1 | inconclusive [inhibitor, single point]
COc1ccc(C(=O)NNC(=O)c2ccccc2[N+](=O)[O-])cc1[N+](=O)[O-] | inconclusive [inhibitor, full curve, poor fit]
CCc1c(C2(O)CCCCC2)[nH]c2ccc(C(F)(F)F)cc12 | inconclusive [inhibitor, partial curve]
Oc1[nH]c2ccc(Br)cc2c1N=NC(=S)N1CCOCC1 | inconclusive [inhibitor, full curve, poor fit]
O=C(Nc1ccc(-c2csc(Nc3ccccc3)n2)cc1)c1cccc(C(F)(F)F)c1 | inconclusive [inhibitor, single point]
CCOC(=O)Cc1csc(NS(=O)(=O)c2ccc(C(F)(F)F)cc2)n1 | inconclusive [inhibitor, single point]
CC(C)c1ccccc1NC(=O)Nc1nc(C(N)Cc2ccc(C(F)(F)F)cc2)cs1 (stereo unspecified) | inconclusive [inhibitor, partial curve]
Cc1ccc(NC(=O)CSc2ccccc2)cc1S(=O)(=O)N1CCCCC1 | inactive
CCNc1c(NS(=O)(=O)c2ccc(C3CCCCC3)cc2)c(=O)oc2ccccc12 | inconclusive [inhibitor, single point]

SMILES | Potency
COc1ccc2c(c1)c(=O)oc1c(C)c(OC(C)C(=O)N[C@@H](Cc3c[nH]c4ccc(O)cc34)C(=O)O)ccc12 (stereo partly specified) | inconclusive [inhibitor, partial curve, poor fit]
COc1cccc(-c2csc(NC(=O)Oc3ccccc3)n2)c1 | inactive
N#Cc1c(Nc2ccccc2)[n+]([O-])c2ccc(Cl)cc2[n+]1[O-] | inactive
COc1c(O)cc2oc(-c3ccc(O)c(O)c3)cc(=O)c2c1O | inconclusive [inhibitor, partial curve]
CC(C)Cn1cnc2c(SCc3ccccc3F)nc(N)nc21 | inactive
CCOC(=O)c1c(C)[nH]c(C(=O)OCC(=O)NCc2ccc(C)cc2)c1C | inconclusive [inhibitor, full curve]
Cc1cc(C(=O)Nc2ccc([N+](=O)[O-])cn2)cs1 | inactive
CCC(=O)N(CCC(c1ccc(C)cc1)c1ccco1)Cc1ccco1 (stereo unspecified) | inconclusive [inhibitor, partial curve, poor fit]
COc1cccc(NC2=C(Cl)C(=O)OC2OC(=O)c2ccco2)c1 (stereo unspecified) | inconclusive [inhibitor, single point]
COC(=O)c1ccccc1Nc1cc(C)nc2nc(C)nn12 | inconclusive [inhibitor, partial curve]
O=C(Nc1cc([N+](=O)[O-])ccc1C(=O)Nc1cccnc1)c1ccccc1 | inconclusive [inhibitor, single point]
NC(=O)c1cc(NC(=O)CCCc2nc3ccccc3s2)cc(C(N)=O)c1 | inconclusive [inhibitor, partial curve]
Cc1cccc2sc(NC(=O)C3CCN(C(=O)c4ccco4)CC3)nc12 | inactive
O=C(CSc1nnc(-c2cccnc2)n1Cc1ccco1)Nc1cccc(O)c1 | inconclusive [inhibitor, single point]
O=C(NCc1ccccc1)C(=O)Nc1nccs1 | inactive
O=S(=O)(c1ccc(N2CCN(S(=O)(=O)c3ccccc3)CC2)nc1)N1CCCC1 | inconclusive [inhibitor, partial curve]
CCc1ccc(NC(=S)N(CCCN2CCOCC2)Cc2ccco2)cc1 | inconclusive [inhibitor, full curve]
COc1ccc(C(C)=O)cc1Cn1c(C)c(C(=O)NCc2ccc(C(F)(F)F)cc2)sc1=O | inconclusive [inhibitor, full curve, poor fit]
COc1ccc(N(C(=O)Cc2cccs2)C2C=CS(=O)(=O)C2)cc1 (stereo unspecified) | inconclusive [inhibitor, partial curve, poor fit]
Cn1cccc1Cc1nnc(SCC(=O)Nc2ccc3c(c2)OCCO3)n1-c1ccc(F)cc1 | inconclusive [inhibitor, single point]
COC(=O)c1ccc(COC(=O)CCNS(=O)(=O)c2ccc(C)c(C)c2)cc1 | inconclusive [inhibitor, single point]
CC(=O)Nc1ccc(NC(=O)c2cc(-c3ccc(F)cc3C)n[nH]2)cc1 | inconclusive [inhibitor, full curve]

SMILES | Potency
CN(C)CC(=O)N1c2ccccc2Sc2ccc(Cl)cc21 | inconclusive [inhibitor, single point]
CCN1CCN(C(c2cccs2)C(C)NS(=O)(=O)c2ccc(C)cc2)CC1 (stereo unspecified) | inactive
Cc1cc(=O)oc2cc(NC(=O)c3cccc(S(C)(=O)=O)c3)ccc12 | inconclusive [inhibitor, single point]
c1ccc2c3c(c(CN4CCCC4)cc2c1)COC3 | inconclusive [inhibitor, partial curve, poor fit]
Cc1ccc(S(=O)(=O)Nc2ccccc2C(=O)Nc2nc(-c3ccc(F)cc3)cs2)cc1 | active: 79.4 µM
C=CCNC(=O)/C(=C\C=C\c1ccccc1)NC(=O)c1ccc(OCCCC)cc1 | inconclusive [inhibitor, partial curve]
C=C(C)C(=O)Oc1ccc(N=Nc2ccc(C)cc2)ccc1=O | inconclusive [inhibitor, single point]
CC(=O)c1ccc(OCC(O)CN2CCc3ccccc3C2)cc1 (stereo unspecified) | inconclusive [inhibitor, single point]
CCOC(=O)N1CCN(C(=O)COC(=O)c2ccc(O)cc2O)CC1 | inconclusive [inhibitor, single point]
CCc1nnc(NC(=O)CSc2sc3c(O)cc(=O)[nH]c3c2C#N)s1 | inconclusive [inhibitor, full curve]
N#Cc1ccccc1N1CCN(C(=O)c2ccc(NC(=O)c3ccc(Br)o3)cc2)CC1 | inconclusive [inhibitor, partial curve]
O=C(c1cc2cc(Cl)ccc2oc1=O)N1CCOCC1 | inactive
O=c1cc(-c2cc3ccccc3o2)c2cc(O)ccc2o1 | inactive
Cc1cc(Br)cc(C)c1NC(=O)c1ccc(C#N)cc1F | inconclusive [inhibitor, partial curve, poor fit]
CC(=O)CC1(OC(C)=O)C(=O)N(C)c2ccccc21 (stereo unspecified) | inactive
CC1(C(=O)NS(=O)(=O)c2ccc(Cl)cc2)CCN1C(=O)CCC1CCCC1 (stereo unspecified) | inactive
Cc1nc2cc(NS(=O)(=O)c3cccc4cccnc34)ccc2s1 | inconclusive [inhibitor, single point]
Cc1nc2c(sc(=S)n2Cc2ccco2)c(=O)n1CC(=O)Nc1ccc(F)cc1 | inactive
CC/C(CC(C)(C)c1ccccc1)=N\O | inconclusive [inhibitor, single point]
CCCCN(CCCC)CCCNC(=O)C12CN(Cc3ccccc3)CC1C(c1cccc([N+](=O)[O-])c1)=NO2 (stereo unspecified) | inactive
C#CCN(C[C@@H]1[C@@H](OC(=O)NCCCCCC)[C@@H](OC(=O)NCCCCCC)Cn2c(=O)ccc(=O)n21)S(=O)(=O)c1ccc(C)cc1 | inconclusive [inhibitor, single point]
O=C(Nc1cc(Br)c(O)c(Br)c1)c1cccc(NC(=O)c2ccco2)c1 | inconclusive [inhibitor, single point]
